Measured values: US11660351B2, “Antibody drug conjugates (ADCs) having enzymatically cleavable groups” (Bayer Pharma Aktiengesellschaft, priority 2016, dated 2023)

B1: TPP-8988: anti-CD123 antibody; heavy chain SEQ ID NO: 79, light chain SEQ ID NO: 80 (antibody)
heavy: EVQLLESGGGLVQPGGSLRLSCAVSDYSITSGYYWNWIRQAPGKKLEWMGYISYDGSNNYNPSLKNGRITISRDTSKNTFYLQMNSLRAEDTAVYYCARGEGFYFDSWGQGTLVTVSS[human IgG1 constant region left out here]
light: EIVLTQSPGTLSLSPGERATLSCKSSQSLFFGSTQKNYLAWYQQKPGQAPRLLIYWASTRESGIPDRFSGSGSGTDFTLTISRLEPEDFAVYYCQQYYNYPWTFGQGTKLEIKRTVAAPSVFIFPPSDEQLKSGTASVVCLLNNFYPREAKVQWKVDNALQSGNSQESVTEQDSKDSTYSLSSTLTLSKADYEKHKVYACEVTHQGLSSPVTKSFNRGEC
modifications: Antibody Sequence
B2: TPP-6013: anti-CD123 antibody, a chimeric variant of 12F1; heavy chain SEQ ID NO: 29, light chain SEQ ID NO: 30 (antibody)
heavy: QVQLQESGPGLVKPSQSLSLTCSVTDYSITSGYYWNWIRQFPGNKLEWMGYISYDGSNNYNPSLKNRISITRDTSKNQFFLKLSSVTTEDTATYYCSRGEGFYFDSWGQGTTLTVSS[human IgG1 constant region left out here]
light: DIMMSQSPSSLAVSVGEKFTMTCKSSQSLFFGSTQKNYLAWYQQKPGQSPKLLIYWASTRESGVPDRFTGSGSGTDFTLAISSVMPEDLAVYYCQQYYNYPWTFGGGTKLEIKRTVAAPSVFIFPPSDEQLKSGTASVVCLLNNFYPREAKVQWKVDNALQSGNSQESVTEQDSKDSTYSLSSTLTLSKADYEKHKVYACEVTHQGLSSPVTKSFNRGEC
modifications: Antibody Sequence

System: target-positive cells
Assay: Co-localization assay of the anti-CD123 antibodies with lysosomes
Assay type: cell-based
Conditions: CypHer5E-labelled antibody 20 μg/ml, lysosomes stained with CytoPainter LysoGreen
Procedure: Owing to the linker, the active metabolite of the antibody-drug conjugate is generated by lysosomal degradation. Accordingly, intracellular trafficking after internalization has taken place is of essential importance. Studies about the co-localization of the antibody using labels specific for the lysosomal organelle (e.g. surface molecules or small GTPases) allow the selection of antibodies having the desired profile. To this end, target-positive cells (5×10^4/well) in a total volume of 100 μl were sown into a 96-MTP (Greiner bio-one, CELLSTAR, 650 180, U-bottom). Following addition of the CypHer5E-labelled anti-target antibody (final concentration 20 μg/ml), the batches (duplicates per point in time) were incubated at 37° C. for 30 min, 2 h and 6 h in an incubator (5% CO2). 30 min prior to the end of the chosen incubation time, the lysosome-specific label was added to the batches to be examined. The lysosomes were stained with CytoPainter LysoGreen indicator reagent (final concentration 1:2000; abcam, ab176826). After incubation, 200 μl of ice-cold FACS buffer (DULBECCO'S PBS, Sigma-Aldrich, No. D8537+3% FBS heat inactivated FBS, Gibco, No. 10500-064) were added and the cell suspension was centrifuged at 400×g and 4° C. for 5 min. […] Co-localization was evaluated using a special software (co-localization software IDEAS Application v6.1).

Molecule	Co-localization [%]
B1	41%
B2	43%
